In PubChem BioAssay AID652106 (National Center for Advancing Translational Sciences (NCATS), 2013):
Hit rate of the full screen: of about 370,000 compounds, about 500 (0.14%) were called active. Inconclusive results, whose numbers are uncertain, are shown with a selection of clear calls. Calls come from the whole dose curve; as a rule, active = well fitted activation curve with a large enough effect; inconclusive = small, poorly fitted or top-dose-only effect; inactive = no such curve, though single readings can be large or run the other way. Potencies of inconclusive entries are doubtful fits and often do not repeat.

experiment: qHTS of alpha-syn Inhibitors; conditions: Yeast expressing alpha-synuclein, BacTiter-Glo, 24 h; Potency: growth rescue unless noted; growth rescue (activation): at 46.1 µM (top of the series) unless noted; note: nearly all actives have a fitted effect of over 65% in size; for growth rescue (activation): % of control where 0% means no effect
How it was run: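 Galactose-induced alpha-syn yeast (OD600=0.02, raffinose-pregrown) + pinned cpd, 24 hr, 30 deg C; growth by BacTiter-Glo luminescence. Growth restoration scores as activation.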
Potency is the fitted concentration of half-maximal effect; tags give direction and shape of the fitted curve.

Potency, inconclusive:
Cc1sc2nc(-c3ccccn3)[nH]c(=O)c2c1-c1ccccc1 31.6 µM [activator, single point]
CCOC(=O)c1c(C)[nH]c(C(=O)COC(=O)COc2ccc(OC)cc2)c1C 22.4 µM [activator, single point]
C[C@H](NC(=O)C1CCN(S(=O)(=O)c2ccccc2)CC1)C(=O)NCc1ccncc1 3.98 µM [activator, single point]
O=C(C[C@H]1C(=O)N(Cc2ccccc2)C[C@@H]1c1ccc(Br)cc1)Nc1ccc(Br)cc1 22.4 µM [activator, single point]
CC1=C(C(=O)N(C(C)C)C(C)C)CC(CC(=O)NCc2cccc3ccccc23)C(=O)N1Cc1ccc(F)cc1 (stereo not drawn) 35.5 µM [activator, single point]
COc1cccc(/C=N/Nc2ncc(C(F)(F)F)cc2Cl)c1O 4.47 µM [activator, single point]
Cc1ccc(OCC(=O)Nc2ccccc2Sc2ccccc2)c([N+](=O)[O-])n1 25.1 µM [activator, single point]
Cc1ccccc1-n1cc(-c2ccc(Br)cc2)nc1SCC(N)=O 12.6 µM [activator, single point]
Cc1ccc(-c2nc3ccc(C)cn3c2CC2CCCCC2)cc1 5.62 µM [activator, single point]
CCOCc1cc(=O)[nH]c(SC)n1 5.62 µM [activator, single point]
CN(C)c1ccc(/C=C/c2ccc3ncccc3c2)cc1 35.5 µM [activator, single point]
CCOc1cccc(N(C(=O)CCC(=O)Nc2cc(C)on2)C(C(=O)NC(C)(C)C)c2ccc(OC)cc2)c1 (stereo not drawn) 3.55 µM [activator, single point]
COC(=O)CSc1nnc(CNS(=O)(=O)c2ccc(Cl)cc2)n1C 5.62 µM [activator, single point]
COc1cccc(C2=NOC(C(=O)Nc3cc(C)on3)C2)c1OC (stereo not drawn) 0.501 µM [activator, partial curve, poor fit]
CCOC(=O)COc1ccccc1C1Nc2ccccc2C(=O)N1c1cccc(Cl)c1 (stereo not drawn) 35.5 µM [activator, single point]
CN1CCN(C(c2ccccn2)c2cc(Cl)c3cccnc3c2O)CC1 (stereo not drawn) 5.62 µM [activator, single point]
O=C(NC(=S)NNC(=O)c1ccccc1[N+](=O)[O-])c1ccc(Br)cc1 14.1 µM [activator, single point]
O=C(c1ccco1)N1CCN(C(=O)c2[nH]c(C(F)(F)F)nc2-c2ccccc2)CC1 5.62 µM [activator, single point]
CCOC(=O)c1ccc2c(c1)nc(SCc1cn3ccsc3n1)n2CC 17.8 µM [activator, single point]
COc1ccc(NS(=O)(=O)c2ccc(Oc3cccc(C(=O)O)c3)cc2)cc1 5.62 µM [activator, single point]
COC(=O)c1ccccc1NC(=O)COc1ccccc1C(=O)Nc1ccccc1 28.2 µM [activator, single point]
COc1ccc(OC)c(C2CC(=O)N3CN(c4ccc(C)c(Cl)c4)CSC3=C2C#N)c1 (stereo not drawn) 10 µM [activator, partial curve]
CCOC(=O)C(N)CSC1CC(=O)N(c2ccc(OCC)cc2)C1=O (stereo not drawn) 31.6 µM [activator, single point]
C[C@H]1CCC(=O)N(CCSc2ccc(Br)cc2)CC1 11.2 µM [activator, partial curve]
O=S1(=O)CC(N2CCCCC2)CN1Cc1ccccc1 (stereo not drawn) 5.62 µM [activator, single point]
Cc1ccc(C)c(S(=O)(=O)N2CCN(C(=O)CCCc3c[nH]c4ccccc34)CC2)c1 28.2 µM [activator, single point]
Cc1cc(=O)[nH]c(N/N=C2/CCCC/C2=C\c2ccccc2)n1 31.6 µM [activator, single point]
CCN1C[C@@H]2[C@@H]3C(=O)N(C)C(=O)[C@@H]3[C@](CC)(C(=O)OC)N2C1=NCc1ccccc1 5.62 µM [activator, single point]
Cc1ccc(NS(=O)(=O)c2ccc(N3CCN(c4ccc(O)cc4)CC3)c([N+](=O)[O-])c2)c(C)c1 35.5 µM [activator, single point]

Potency, active:
O=C(N/N=C/c1ccccn1)c1sc2ccccc2c1Cl 3.16 µM

Growth rescue (activation), inactive:
CCc1ccc(N2CC(C(=O)N3CCN(c4ccccn4)CC3)CC2=O)cc1 (stereo not drawn) 5.66%
C[N+]1=C(/C=C/Nc2ccccc2Cl)C(C)(C)c2ccccc21 0.444%
CCOc1ccccc1NS(=O)(=O)c1ccc(-c2cnc(C3CC3)o2)cc1 10.9%
O=C1c2ccccc2S(=O)(=O)c2cc(C(=O)N3CCN(c4ccc(Cl)cn4)CC3)ccc21 6.01%
CCOc1cc(S(=O)(=O)NCc2ccc3c(c2)OCO3)c(C)cc1C 6.84%
COC(=O)c1ccc(C(=O)OC)c(NC(=O)COC(=O)C2CCC(C(C)(C)C)CC2)c1 (stereo not drawn) 15.7%
CN1CCCC1(C)C(=O)NCc1ccc(F)cc1Cl (stereo not drawn) 1.18%
CC(=O)Nc1ccc(NC(=O)[C@@H](NC(=O)N2C[C@H]3C[C@@H](C2)c2cccc(=O)n2C3)C(C)C)cc1 0.887%
N#CCCN(C(=O)COC(=O)COc1ccc(Cl)cc1)c1ccccc1 0.0073%
COc1ccc(C(=O)c2oc3ccc(OC)cc3c2N)cc1 0.523%
COc1ccc(NC(=O)COC(=O)/C=C/c2cccs2)c(OC)c1 -0.255%
Fc1ccc(-c2ccnc3nc(N4CCOCC4)nn23)cc1 -2.04%

Growth rescue (activation), inconclusive:
O=C(/C=C/c1ccccc1)CC(O)(c1ccccc1)C(F)(F)F (stereo not drawn) -39.1% [activator]
